Laboratory results reported in the supplement of paper PMC8728848.
The other results are listed elsewhere or left out.

Legend:
Experiment in all cases: glycan array binding signal (z-score within array); higher = stronger binding
Settings in all cases: glycan notation: IUPAC condensed, linker removed
[1] = biological target: Gal(a1-4)Gal(b1-4)GlcNAc
Method in brief: (§1)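 Arrays were curated from the Consortium for Functional Glycomics database, 3228 in total, and kept only where the protein sequence was available. Binding is expressed as a within-array Z-score. This score was averaged across arrays of the same protein sequence at different concentrations or buffers and across linkers, and negative values can be read as non-binding.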

[2] = biological target: Gal(a1-4)Gal(b1-4)GlcNAc(b1-2)Man(a1-3)[Gal(a1-4)Gal(b1-4)GlcNAc(b1-2)Man(a1-6)]Man(b1-4)GlcNAc(b1-4)GlcNAc
Method in brief: as §1

[3] = biological target: Gal(a1-4)Gal(b1-4)GlcNAc(b1-3)Gal(b1-4)Glc
Method in brief: as §1

[4] = biological target: Gal(a1-4)GlcNAc
Method in brief: as §1

[5] = biological target: Gal(a1-6)Glc
Method in brief: as §1

[6] = biological target: Gal(b1-2)Gal
Method in brief: as §1

[7] = biological target: Gal(b1-3)Gal
Method in brief: as §1

[8] = biological target: Gal(b1-3)Gal(b1-4)GlcNAc
Method in brief: as §1

[9] = biological target: Gal(b1-3)Gal(b1-4)GlcNAc(b1-2)Man(a1-3)[Gal(b1-3)Gal(b1-4)GlcNAc(b1-2)Man(a1-6)]Man(b1-4)GlcNAc(b1-4)GlcNAc
Method in brief: as §1

[10] = biological target: Gal(b1-3)GalNAc
Method in brief: as §1

[11] = biological target: Gal(b1-3)GalNAc(a1-3)[Fuc(a1-2)]Gal(b1-4)Glc
Method in brief: as §1

[12] = biological target: Gal(b1-3)GalNAc(a1-3)[Fuc(a1-2)]Gal(b1-4)GlcNAc
Method in brief: as §1

[13] = biological target: Gal(b1-3)GalNAc(b1-3)Gal
Method in brief: as §1

[14] = biological target: Gal(b1-3)GalNAc(b1-3)Gal(a1-4)Gal(b1-4)Glc
Method in brief: as §1

[15] = biological target: Gal(b1-3)GalNAc(b1-3)Gal(b1-4)Glc
Method in brief: as §1

[16] = biological target: Gal(b1-3)GalNAc(b1-3)Gal(b1-4)GlcNAc
Method in brief: as §1

[17] = biological target: Gal(b1-3)GalNAc(b1-4)Gal(b1-4)Glc
Method in brief: as §1

[18] = biological target: Gal(b1-3)GalNAc(b1-4)[Neu5Ac(a2-3)]Gal(b1-4)Glc
Method in brief: as §1

[19] = biological target: Gal(b1-3)GlcNAc
Method in brief: as §1

[20] = biological target: Gal(b1-3)GlcNAc(a1-3)Gal(b1-4)GlcNAc
Method in brief: as §1

[21] = biological target: Gal(b1-3)GlcNAc(a1-6)Gal(b1-4)GlcNAc
Method in brief: as §1

[22] = biological target: Gal(b1-3)GlcNAc(b1-2)Man
Method in brief: as §1

[23] = biological target: Gal(b1-3)GlcNAc(b1-2)Man(a1-3)[Gal(b1-3)GlcNAc(b1-2)Man(a1-6)]Man(b1-4)GlcNAc(b1-4)GlcNAc
Method in brief: as §1

[24] = biological target: Gal(b1-3)GlcNAc(b1-2)Man(a1-3)[Gal(b1-3)GlcNAc(b1-2)Man(a1-6)]Man(b1-4)GlcNAc(b1-4)[Fuc(a1-6)]GlcNAc
Method in brief: as §1

[25] = biological target: Gal(b1-3)GlcNAc(b1-2)Man(a1-3)[GlcNAc(b1-4)][Gal(b1-3)GlcNAc(b1-2)Man(a1-6)]Man(b1-4)GlcNAc(b1-4)GlcNAc
Method in brief: as §1

[26] = biological target: Gal(b1-3)GlcNAc(b1-2)[Gal(b1-3)GlcNAc(b1-6)]Man(a1-6)[Gal(b1-3)GlcNAc(b1-2)Man(a1-3)]Man(b1-4)GlcNAc(b1-4)GlcNAc
Method in brief: as §1

[27] = biological target: Gal(b1-3)GlcNAc(b1-3)Gal(b1-3)GlcNAc
Method in brief: as §1

[28] = biological target: Gal(b1-3)GlcNAc(b1-3)Gal(b1-4)Glc
Method in brief: as §1

[29] = biological target: Gal(b1-3)GlcNAc(b1-3)Gal(b1-4)GlcNAc
Method in brief: as §1

[30] = biological target: Gal(b1-3)GlcNAc(b1-3)Gal(b1-4)GlcNAc(b1-2)Man(a1-3)[Gal(b1-3)GlcNAc(b1-3)Gal(b1-4)GlcNAc(b1-2)Man(a1-6)]Man(b1-4)GlcNAc(b1-4)GlcNAc
Method in brief: as §1

B1: Epa1-NP (Candida glabrata), Q6VBJ0 (protein)
chain: MILNPALFLNKCVCIYTTLILLLLTNGGYATSSNDISLASKDPTTFPLGCSPDITTPKKGLSMELYSYDFRKKGSYPCWDAAYLDPNYPRTGYKSHRLLAKVDGVTGNINFYYHATKGCTPQLGHLPASYNYPKPLTMTNFTMLLYGYFRPKVTGFHTFTISADDLLFVNFGAGNAFDCCRRDSSADHFGNYQAYAIWGSKTAKDELTVHLDAGVYYPIRLFYNNREYDGALSFTFKTESNENTVSDFSEYFFSLDDTEEGCPGLISYDSSCASVKTSKIIGIDYHTETPNENLVPITKTIYHLGIPCTGTTTTPLCGSGFYDPLANKCVTINTSSTSSVTKTTSHTTSKEVSFHSSISSQKTLIPKSIPSPYGPIKSQSIPTEMETSSEISSSEYAFSDVISTPSHSPYTKKHSSLNSSSYTSTVIHSLTSYSISQGIFSTSLSEQNITSKSSTDKFSTATSMSNNITQSSIIISQFSTNNENYTTTSMHTSSDKISTETLNNSISTTTSILFSNSSTILKNNTTIISSDKDTHYHPVNPTIVCSTNKTEIICASITQPSISNSNNHWSSSVLKFNSTTVRSTLPSSAGSNETSINVPFSSSTESNTSTSSTSTSNSKMVRSTLPSSAGSNETSISVPFSSSTESNTSTSSTSTSNSKMVRSTLPSSAGSNETSINVPFSSSTESNTSTSSTSTSNSKTVRSTPFSSAGIIMTSLSQRNNKSASSYASSNSKCYNTADSCRKVHSTPSYLLTSSYTSEGVDYDCSLVSTKLKINDTNCVNNKHTTKSCLKTSVTTTIPTLEIKTARKSSSNTIGLHSYPTSSPNKSISSAPIIGYISSFKTIKTASPSYQTSDLTTITTITSLNNPGSTAVENTHESNDKSRKTSSNDISSKHSVIKETKDAVESSNKSHQTNTLKCSSIIIASSSHNSYESLGGTTLTLTLSKVYSPQNNDTLPFLEISEVNPSRTVLPESSKMMQYLTSTEERNKTARNTIATNIVSISTFHFEGEGNAIRMGYTQLLLMLIGIIVMNIGT
[1]
  glycan array binding signal (z-score): -0.027
[2]
  glycan array binding signal (z-score): -0.225
[3]
  glycan array binding signal (z-score): -0.181
[4]
  glycan array binding signal (z-score): 0.658
[5]
  glycan array binding signal (z-score): 0.361
[6]
  glycan array binding signal (z-score): 0.199
[7]
  glycan array binding signal (z-score): 2.9
[8]
  glycan array binding signal (z-score): 5
[9]
  glycan array binding signal (z-score): -0.2
[10]
  glycan array binding signal (z-score): 2.56
[11]
  glycan array binding signal (z-score): 1.27
[12]
  glycan array binding signal (z-score): 1.42
[13]
  glycan array binding signal (z-score): 2.91
[14]
  glycan array binding signal (z-score): 1.31
[15]
  glycan array binding signal (z-score): 1.31
[16]
  glycan array binding signal (z-score): 1.4
[17]
  glycan array binding signal (z-score): 8.65
[18]
  glycan array binding signal (z-score): 2.27
[19]
  glycan array binding signal (z-score): -0.001
[20]
  glycan array binding signal (z-score): -0.285
[21]
  glycan array binding signal (z-score): -0.035
[22]
  glycan array binding signal (z-score): -0.026
[23]
  glycan array binding signal (z-score): 0.837
[24]
  glycan array binding signal (z-score): 0.136
[25]
  glycan array binding signal (z-score): 0.523
[26]
  glycan array binding signal (z-score): 0.207
[27]
  glycan array binding signal (z-score): -0.16
[28]
  glycan array binding signal (z-score): -0.2
[29]
  glycan array binding signal (z-score): -0.183
[30]
  glycan array binding signal (z-score): -0.121
